Assay results taken from the RNAGym collection of RNA variant scans (doi:10.7554/elife.90254).
Read counts are not given, so values of variants with three or more changes are uncertain.

B1: OR4K15 (parent)
chain: GUUAACGGUCAUAGGCCAUGGAAACUAGGAGCACCAUUUCGCUGCCAGUGAAGAAAUGAACAAAGAAAAUCUGGGCCAGGCAGGCAUCAAAAGAAAUAGUCUUGCGCUCAACCAGAAAGUCUGUAAUCAUUUUAAGGGUA

Variants of: B1
Experiment: self-cleavage, relative activity (ratio to wild type); higher = more cleavage; in vitro, sequencing; the parent is a self-cleaving ribozyme
GUUAACGGUCGUAGGCCAUGGAAACUAGGAGCACCAUUUCGCCGCCAGUGAAGAAAUGAACAAAGGAGAUCUGGGCCAGGCAGGCAUCAAAAGAAAUAGUCUUGCGCUCAACCAGAAAGUCUGUAAUCAUUUUAAGGGUA [A11G U43C A66G A68G] gave a self-cleavage of 0.9. In the case of GUUAACGGUCGUAGGCCAUGGAAACUAGGAGCACCAUUUCGCUGCCAGUGAAGAAACGAACAAAGGAAAUCUGGGCCAGGCAGGCGUCAAAAGAAAUAGUCUUGCGCUCAACCAGAAAGUCUGUAAUCAUUUUAAGGGUA [A11G U57C A66G A86G], the self-cleavage is reported as 0.39. For GUUAACGGUCGUAGGCCAUGGAAACUAGGAGCACCAUCUCGCUGCCAGUGAAGAAAUGAACAAAGAAAAUCUGGGCCAGGCAGGCAUCAAAAGAAAUAGUCUUGCGCCCAACCAGAAAGUCUGUAAUCAUUUUAAGGGUA [A11G U38C U108C], the self-cleavage was 0.06. In the case of GUUAACGGUCGUAGGCCAUGGAAACUAGGAGCACCAUUUCGCCGCCAGUGAAGAAAUGAACAAAGAAAAUCUGGGCCAGGCAGGCAUCAAAGGAAAUAGUCUUGCGCUCAACCAGAAGGUCUGUAAUCAUUUUAAGGGUA [A11G U43C A92G A118G], the self-cleavage is reported as 1.23. GUUAACGGUCGUAGGCCAUGGAAACUAGGAGCACCAUUUCGCCGCCAGUGAAGAAAUGAACAAAGAAAAUCUGGGCCAGGCAGGCAACAAAAGAAAUAGUCUUGCGCUCAACCAGAAAGUCUGUAAUCAUUUUAAGGGUA [A11G U43C U87A] gave a self-cleavage of 1.62. In the case of GUUAACGGUCGUAGGCCAUGGAAACUAGGAGCACCAUUUCGCUGCCAGUGAAGAAAUGAACAAAGAAAAUCUGGGCCAGGCAGGCACCAAAAGAAAUAGUCUUGCGCUCAACCAGAUAGUCUGUAAUCAUUUUAAGGGUA [A11G U87C A117U], the self-cleavage is reported as 0.79. GUUAACGGUCGUAGGCCAUGGAAACUAGGAGCACCAUUCCGCUGCCAGUGAAGAAACGAACAAAGAAAAUCUGGGCCAGGCAGGCAUCAAAAGAAAUAGUCUUGCGCUCAACCAGAAAGUCUGUAAUCAUUUUAAGGGUA [A11G U39C U57C] showed a self-cleavage of 1.12. Variant GUUAACGGUCGUAGGCCAUGGAAACUAGGAGCACCAUUUCGCUGCCAGUGAAGAAACGGACAAAGAAAAUCUGGGCCAGGCAGGCAUCAAAAGAAAUAGUCUUGCGCUCAACCAGAAAGUCUGUAAUCAUUUUAAGGGUA [A11G U57C A59G] has a self-cleavage of 1.25. GUUAACGGUCGUAGGCCAUGGAAACUAGGAGCACCAUUCCGCUGCCAGUGAAGAGAUGAACAAAGAAAAUCUGGGCCAGGCAGGCAUCAAAAGAAAUAGUCUUGCGCUCAACCAGAAAGUCUGUAAUCAUUUUAAGGGUA [A11G U39C A55G] showed a self-cleavage of 1.31. In the case of GUUAACGGUCGUAGGCCAUGGAAACUAGGAGCACCAUUCCGCUGCCAGUGAAGAUAUGAACAAAGAAAAUCUGGGCCAGGCAGGCAUCAAAAGAAAUAGUCUUGCGCUCAACCAGAAAGUCUGUAAUCAUUUUAAGGGUA [A11G U39C A55U], the self-cleavage is reported as 0.89. GUUAACGGUCGUAGGCCAUGGAAACUAGGAGCACCAUUUCGCUGCCAGUGAAGAAACGAACAAAGAAAGUCUGGGCCAGGCAGGCAUCAAAAGAAAUAGUCUUGCGCUCAACCAGAAAGUCUGUAAUCAUUUUAAGGGUA [A11G U57C A69G] gave a self-cleavage of 1.12. GUUAACGGUCGUAGGCCAUGGAAACUAGGAGCACCAUCUCGCUGCCAGUGAAGAAAUGAACAAAGAAAAUCUGGGCCAGGCAGGCAUCAAAAGAAAUAGUCUUGCGCUCAACCAGAAAGCCUGUAAUCAUUUUAAGGGUA [A11G U38C U120C] showed a self-cleavage of 0.78. Work on GUUAACGGUCGUAGGCCAUGGAAACUAGGAGCACCAUUUCGCUGCCAGCGAAGAAAUGAACAAAGAAAAUCUGGGCCAGGCAGGCAUCGAAAGAAAUAGUCUUGCGCUCAGCCAGAAAGUCUGUAAUCAUUUUAAGGGUA [A11G U49C A89G A111G] yielded a self-cleavage of 0.05. GUUAACGGUCGUAGGCCAUGGAAACUAGGAGCACCAUUUCGCCGCCAGUGAAGAAAUGAGCAAAGAAAGUCUGGGCCUGGCGGGCUUCAAAAGAAAUAGUCUUGCGCUCAACCAGAAAGUCUGUAAUCAUUUUAAGGGUA [A11G U43C A60G A69G A78U A82G A86U] gave a self-cleavage of 0.17. GUUAACGGUCGUAGGCCAUGGAAACUAGGAGCACCAUUUCGCUGCCAGUGAAGAAAUGAACAAAGAAAACCUGGGCCAGGCAGGCAUCAAAAGAAAUAGACUUGCGCUCAACCAGAAAGUCUGUAAUCAUUUUAAGGGUA [A11G U70C U100A] gave a self-cleavage of 0.24. Variant GUUAACGGUCGUAGGCCAUGGAAACUAGGAGCACCAUUUCGCUGCCAGUGAAGAAAUGAACAAAGAAAAUCUGGGCCAGGCAGGCACCAAAAGAAAUAGUCUUGCGCUCGACCAGAGAGUCUGUAAUCAUUUUAAGGGUA [A11G U87C A110G A117G] has a self-cleavage of 0.1. GUUAACGGUCGUAGGCCAUGGAAACUAGGAGCACCAUUUCGCCGCCAGUGAAGAAAUGAACAAAGAAAAUCUGGGCCUGGCAGGCAUCAAAAGAAAUAGUCUUGCGCCCAACCAGAAAGUCUGUAAUCAUUUUAAGGGUA [A11G U43C A78U U108C] gave a self-cleavage of 0. With GUUAACGGUCGUAGGCCAUGGAAACUAGGAGCACCAUUUCGCUGCCAGUGAAGAAACGAACAAAGAAAAUCUGGGCCAGGCAGGCAUCAAAGGAAAUAGUCUUGCGCUCAACCAGAAAGUCUGUAAUCAUUUUAAGGGUA [A11G U57C A92G] the self-cleavage was 0.91. GUUAACGGUCGUAGGCCAUGGAAACUAGGAGCACCAUUCCGCUGCCAGUGAAGAAAUGAACAAAGAAGAUCUGGGCCAGGCAGGCAUCAAAAGAAAUAGUCUUGCGCUCAACCAGAAAGUCUGUAAUCAUUUUAAGGGUA [A11G U39C A68G] showed a self-cleavage of 1.45. With GUUAACGGUCGUAGGCCAUGGAAACUAGGAGCACCAUUUCGCCGCCAGUGAAGAAAUGAACAAAGAAAAUCUGGGCCAGGCAGGCAUCAAAAGAAAUAGUCUUGCGCUCAACCAGAAAGUCUGUAAUCAUUUUAGGGGUA [A11G U43C A135G] the self-cleavage was 0.77. In the case of GUUAACGGUCGUAGGCCAUGGAAACUAGGAGCACCAUUUCGCCGCCAGUGAAGAAAUGAACAAAGAAAAUCUGGGCCAGGCCGGCAUCAAAAGAAAUAGUCUUGCGCUCAACCAGAAAGUCUGUAAUCAUUUUAAGGGUA [A11G U43C A82C], the self-cleavage is reported as 0.13.
